In the supplement of paper PMC3334620:
Whole data set: some 33,000 sequences, median “E-score (-0.5 to 0.5)” near -0.043, cut for the highest 2% near 0.37. This is one part of the list.

Each sequence was assayed against T1, Upc2 (UniProt Q12151) (assay: PBM E-score (8-mer binding enrichment) (E-score (-0.5 to 0.5)); higher = stronger / more preferred TF binding; most listed sequences are background and not binding sites). Settings: protein concentration: 200 nM; construct: GST-full length.
T1 sequence: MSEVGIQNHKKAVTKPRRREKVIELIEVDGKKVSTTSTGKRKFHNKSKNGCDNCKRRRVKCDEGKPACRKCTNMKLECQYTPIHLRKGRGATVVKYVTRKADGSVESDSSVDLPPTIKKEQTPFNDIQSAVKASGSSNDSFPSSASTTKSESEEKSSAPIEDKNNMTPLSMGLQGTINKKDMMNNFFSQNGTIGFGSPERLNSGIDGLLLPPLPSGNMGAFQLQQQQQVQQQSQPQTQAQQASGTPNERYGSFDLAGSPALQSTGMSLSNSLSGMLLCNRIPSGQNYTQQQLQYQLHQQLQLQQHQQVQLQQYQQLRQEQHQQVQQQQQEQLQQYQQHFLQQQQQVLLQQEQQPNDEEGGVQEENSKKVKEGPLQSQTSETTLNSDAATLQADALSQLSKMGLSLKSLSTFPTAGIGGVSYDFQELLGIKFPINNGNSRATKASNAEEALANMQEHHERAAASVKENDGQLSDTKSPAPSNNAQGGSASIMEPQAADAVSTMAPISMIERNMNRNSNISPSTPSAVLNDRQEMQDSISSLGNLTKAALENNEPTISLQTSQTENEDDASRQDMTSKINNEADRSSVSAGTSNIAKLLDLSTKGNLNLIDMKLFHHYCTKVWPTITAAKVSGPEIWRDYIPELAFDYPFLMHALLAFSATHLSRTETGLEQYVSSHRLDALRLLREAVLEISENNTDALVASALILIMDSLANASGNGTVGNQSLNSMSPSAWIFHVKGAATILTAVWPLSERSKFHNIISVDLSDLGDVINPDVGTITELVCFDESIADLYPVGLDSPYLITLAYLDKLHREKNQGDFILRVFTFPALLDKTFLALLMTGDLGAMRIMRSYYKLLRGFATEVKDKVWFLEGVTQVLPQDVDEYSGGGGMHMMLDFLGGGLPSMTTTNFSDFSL
Procedure: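 Universal 'all 10-mer' protein binding microarrays (Agilent AMADID 015681) probed with GST-tagged S. cerevisiae TFs (full-length or DBD) made by in vitro transcription/translation (PURExpress), about 100-200 nM. Bound TF was detected with fluorescent anti-GST. Each ungapped 8-mer (which stands for itself and its reverse complement) is scored by the PBM enrichment score (E-score), a modified Wilcoxon-Mann-Whitney statistic from -0.5 to +0.5, computed with the Universal PBM Analysis Suite. Scale: above 0.35 generally sequence-specific binding.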

Sequence | PBM E-score
ACGCCCAA | -0.00096
CGGCTGGA | -0.122
CAAGCTCC | -0.326
AACTGTGC | -0.209
GTGCACTA | 0.0718
GCTGTCAA | 0.0108
AAGGAAGG | -0.0469
TCAGAACA | -0.064
CACTAGTC | -0.267
CCCACGGG | -0.203
ACCAGTGC | -0.0356
AAGTGAGT | -0.195
CGGTAAGA | 0.0772
TAAGTATA | 0.219
ATAGACCA | 0.0797
TCCCCAGA | -0.22
ATCACCGA | -0.0665
GCGAGTAA | 0.0944
CATTGCGC | -0.113
GGCACCAC | -0.158
AATTCCCT | -0.147
AGGGCAGA | -0.387
ACCCTGGA | -0.0506
TCTACCAA | -0.13
ATCGAGCG | 0.147

Sequence | PBM E-score
CCCTGTCA | -0.229
GGTTGTTA | 0.101
CGAACCAG | 0.123
AATGCAAT | -0.103
AATCGGAT | 0.235
CCAGTCGA | -0.00559
GGGAACGA | 0.466
AGTCTTCG | 0.0756
GATCTACA | -0.172
ACAGACCT | 0.0499
ACGGTTGA | 0.133
AGTACCCG | 0.135
AAAATTCA | 0.105
CAAAGGTC | -0.212
CATCAAAC | 0.0608
GGGTTGGA | -0.107
CAGTGGGA | -0.121
AGTAAGAT | -0.0269
AACTCTCA | -0.0535
CTCCTGGC | -0.201
GACTGGAA | -0.0501
CCCACAAA | -0.0777
CTTACGGA | 0.104
CGGAGAAG | -0.249
AAATAGTG | -0.0513

Sequence | PBM E-score
CTCTAGCC | -0.122
ATCCAGGC | -0.276
GGAAGCCC | -0.0929
CGCGTTGA | 0.0434
CCGAAGAC | 0.0104
CGATATAC | 0.308
GGTCCCTA | -0.167
ACCGGAGA | -0.0818
GCCCTCAA | -0.144
CTGTCGTA | 0.447
CTCGCCGC | -0.109
CGTAGAGA | 0.274
AACCCGAG | 0.169
CACTGCGA | 0.0515
ACGTGCTA | 0.207
CTTCTCAA | -0.0755
GTAATGAC | 0.109
GTTTTACA | -0.0312
CTCTATTC | 0.052
ATCCACGC | -0.113
GCATCGGC | -0.141
GGCGGAGA | -0.105
GTCTAAGA | -0.0199
GTAGGTTA | 0.0545
CTGGGTTC | 0.0149

Sequence | PBM E-score
AGGAGACA | -0.0517
GTAAGAGA | 0.169
ACCTTTAT | -0.172
GCGTACCC | 0.244
CAATTCGC | 0.11
ACGCATCA | 0.0527
CAGTTGAA | -0.171
ACTGTAAC | 0.0684
AAGTAGCG | -0.116
CGGTCAAG | 0.012
GGCCCCGA | -0.113
GAACCAGA | -0.125
AGATAGAG | -0.0701
CAAGTTCC | -0.101
TGTTTGAA | -0.0139
AGAATTCG | -0.0112
GGGGGTCA | -0.234
ACGTGGTG | 0.0484
AGTTTTAC | 0.228
CTTGACCA | -0.331
CGCGTTGC | 0.0892
ATGGCACC | -0.113
CGGGTGCC | -0.134
AAAAAGAT | -0.0855
CTCCCCGC | 0.0534

Sequence | PBM E-score
AGGAAGTA | -0.191
AACATGCG | 0.108
CCTAACGA | 0.274
GTTCCGTA | 0.357
ACTAGAAG | -0.291
AGGATGCG | 0.134
CGGCTAAA | 0.132
GACGCGTC | 0.0619
AAACACTA | 0.0978
GTATACCA | 0.191
AAAAGGGA | -0.2
CCCCGAGG | -0.22
CGGTTAGA | 0.271
AACGCCCG | 0.0967
CATGAAGC | -0.201
ACATTGCA | -0.0401
ACGTTCTG | 0.106
ATCCGCAT | 0.0894
CTAGAACC | -0.0215
GGGCCGAA | -0.135
AAACTTGT | 0.118
CGATCTCA | -0.111
GGCTCCAC | -0.29
GCGAGGAA | 0.155
TATGTTGA | 0.0157

Sequence | PBM E-score
CCAGGACA | -0.262
GACGTCCA | -0.163
GATGGTCC | -0.143
ACGCAATA | 0.185
GCTCGAAC | 0.0884
AGTCAAGG | -0.208
ACACTTAC | 0.0914
GTCCAAAC | -0.065
AACAGAGG | -0.266
ACTCACAC | -0.1
ATAAAGCG | 0.205
AGTTCGCG | 0.0516
AAGCAACA | -0.21
CAGGGTGC | -0.287
CCGTCCGC | -0.19
GATGAGAA | -0.0646
GTACCATA | 0.15
AGAGGTTG | -0.254
AAATAGAC | -0.00717
CGTACGTC | 0.338
AAAACCGT | 0.0566
AATCGGAA | -0.05
AGCTTCCT | 0.00311
GGGGAGGA | -0.196
CTTCTACA | -0.0885

Sequence | PBM E-score
CGCCAACA | -0.147
CTTGTAAA | 0.0742
GCAGGGAA | -0.0974
AGGACCCG | -0.17
ATTTCGTG | 0.0688
GAACCTTA | -0.0824
AGTAATGG | 0.00713
ATGGTTGG | -0.0863
GGGTTCAC | -0.0173
ATGCTGTA | 0.097
GAGTATCC | -0.0664
CATAGACC | -0.014
GGGATCTA | -0.117
CTAACAGC | -0.0732
TCGTCCCA | -0.114
ATAGCCGA | -0.0218
AACGCAGT | 0.196
ATTTGTAA | -0.102
CAGCCCTA | -0.15
AATATATA | 0.134
ACCACCAA | -0.239
ATGTGAAA | -0.0856
